# Reference: PubChem BioAssay AID485344 (National Center for Advancing Translational Sciences (NCATS), 2010)
# The whole screen tested about 340,000 compounds, of which about 6,900 (2%) were called active. No stated cut-off is given here; in the data, active means inhibition above about 30%; inactive means below that, where a call was filed. This is a selection; strong and weak results do not stand in their true shares. The source gives no active or inactive call for entries shown without one.
# Molecular target: D(2) dopamine receptor (Homo sapiens) (UniProt P14416)
# UniProt P14416, sequence (P14416 whole entry, looked up): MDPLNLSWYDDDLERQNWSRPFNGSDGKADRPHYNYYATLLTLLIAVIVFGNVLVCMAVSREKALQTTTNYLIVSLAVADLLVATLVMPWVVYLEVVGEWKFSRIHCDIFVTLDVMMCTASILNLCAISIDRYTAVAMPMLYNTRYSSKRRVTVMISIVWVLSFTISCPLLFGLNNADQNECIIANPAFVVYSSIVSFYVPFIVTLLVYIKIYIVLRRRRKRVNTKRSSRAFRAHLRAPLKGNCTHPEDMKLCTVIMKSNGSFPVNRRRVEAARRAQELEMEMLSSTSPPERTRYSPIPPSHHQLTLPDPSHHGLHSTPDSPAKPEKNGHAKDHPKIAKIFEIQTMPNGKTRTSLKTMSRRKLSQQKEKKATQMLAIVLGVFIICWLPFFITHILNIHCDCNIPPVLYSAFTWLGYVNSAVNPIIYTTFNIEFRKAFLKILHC
# Assay: HTS Assay for Allosteric Antagonists of the Human D2 Dopamine Receptor: Primary Screen for Antagonists; further: 0% is about no effect
# Details: HEK293 TREx D2 cells, calcium flux, dopamine EC80; at 10 µM; stronger effect = higher value
# Method in brief: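 HEK293 T-REx D2 cells, tet-induced, calcium dye no-wash. Cpd pintool add, 180 s kinetic, then EC80 DA, 180 s kinetic. Ca flux read.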
row,Compound,inhibition
1,COc1ccc(OC)c(NC(=O)C2=C(C)C(=O)OC23CCN(C(C)C)CC3)c1,-3.43%
2,Fc1ccc(N2CCN(c3ncnc4onc(-c5ccc(Cl)cc5)c34)CC2)cc1,-0.616%
3,COc1cc(Nc2nc(-c3ccc(OC)c(OC)c3)nc3ccccc23)cc(OC)c1,4.46%
4,Cc1cccn2c(=O)c(C(=O)N3CCN(c4ccccc4)CC3)cnc12,-0.48%
5,COc1ccccc1Nc1c2c(nc3ccc(NC(=O)c4ccc(N(C)C)cc4)cc13)CCCC2,18.9%
6,CSc1nc(N2CCN(Cc3ccc4c(c3)OCO4)CC2)c2ccccc2n1,active: 37.9%
7,Cc1ccc(-n2c(=O)c3oc4ccccc4c3n(Cc3cccc(F)c3)c2=O)cc1C,-9.33%
8,Cc1ccc(C(=O)c2c(N)c(C(=O)Nc3cccc(C(F)(F)F)c3)c3ccccn23)cc1,-2.05%
9,Cc1nc2nc(NCc3ccc(Br)cc3)[nH]n2c(=O)c1Cc1ccccc1,0.0908%
10,CCCCOc1ccc(C(=O)Nc2cccc(-c3nc4ccccc4o3)c2C)cc1,-1.9%
11,CN(C)c1ccc(CNC(=O)c2ccc3nc(Cc4ccccc4)oc3c2)cc1,16.2%
12,O=C(O)CCn1ccc2cc(S(=O)(=O)N3CCCCCC3)ccc21,0.791%
13,CCN(CC(=O)Nc1ccc2c(c1)OCCO2)C(=O)COc1cc(C)ccc1Cl,active: 33.2%
14,Cc1cc(C)c(NC(=O)C(=O)NCCc2csc(-c3ccc(F)cc3)n2)c(C)c1,-1.99%
15,Cc1cccc(NC(=O)Cn2c(=O)n(Cc3ccccc3)c(=O)c3oc4ccccc4c32)c1C,-5.74%
16,CC(C)c1ccc(NC(=O)c2ccc(CN3CC(=O)N4CCCCC4C3=O)cc2)cc1 (configuration not stated),2.19%
17,COc1ccccc1C(=O)Nc1ccc(C(=O)OCc2cc(=O)n3c4c(sc3n2)CCCC4)cc1,14.5%
18,CCOc1ccc(C2C(C(N)=O)=C(C)Nc3nc(SCc4ccccc4F)nn32)cc1 (configuration not stated),5.3%
19,Cc1ccc(CNC(=O)c2c(Nc3c(C)cccc3C)sc(C(=O)c3ccccc3)c2N)cc1,17.6%
20,COc1ccccc1NC(=O)c1cnn(-c2ccccc2)c1-n1cccc1,9.06%
21,CC(C)c1cccc(OCCN2CCCC2)c1,active: 70.5%
22,Cc1ccc(CNC(=O)c2c(Nc3ccccc3C)sc(C(=O)c3ccc(F)cc3)c2N)cc1,-21%
23,COc1ccc(CC(=O)NCC(c2cccs2)S(=O)(=O)c2ccc(F)cc2)cc1 (configuration not stated),4.43%
24,COc1cccc(-c2nn(C)c3sc(C(=O)NCc4ccc(OC)cc4OC)cc23)c1,0.816%
25,Cc1ccc(C(=O)N(Cc2ccco2)c2ccccn2)cc1,-5.15%

row,Compound,inhibition
1,O=C(CN1CCN(Cc2ccccc2F)C1=O)NCc1ccccc1,-9.8%
2,COc1cc(NC(=O)c2nn(C)c3c2COc2ccccc2-3)cc(OC)c1OC,-14.3%
3,CCOc1ccccc1NC(=O)C1=C(C)Nc2ncnn2C1c1ccco1 (configuration not stated),-22.7%
4,CCc1cnc2c(c1SC(C(C)=O)C(=O)N(C)C)c(=O)n(C)c(=O)n2C (configuration not stated),12.5%
5,COc1ccc(CCNC(=O)c2ccc(Cn3c(SCc4ccccc4)nc4cccnc43)cc2)cc1,12.5%
6,O=C(CCn1c(=O)c2ccccc2n(CC(=O)Nc2ccc(F)cc2)c1=O)NCCc1ccccc1,-5.58%
7,COCCCNC(=O)c1ccc(Cn2c(=O)c3ccccc3n(Cc3ccc(Cl)cc3)c2=O)cc1,-8.86%
8,Cc1cccc(-n2c(SCC(=O)Nc3ccc(C)c(C)c3)nc3n[nH]c(C)c3c2=N)c1,15.6%
9,CCOC(=O)c1ccccc1NC(=O)c1c(C)oc2ncnc(N3CCOCC3)c12,-3.68%
10,COc1cccc(-n2c(=O)c3c(C)c(C)sc3n(Cc3ccccc3C#N)c2=O)c1,2.03%
11,CCOc1ccc(CNC(=O)c2cc3ccccn3n2)cc1,6.01%
12,COc1ccc(-c2nc3sc(CCNC(=O)C(=O)Nc4ccccc4C#N)c(C)n3n2)cc1,8.68%
13,CCN(CC)CCCNc1oc(-c2ccc(OC)cc2)nc1C#N,-0.55%
14,CC(C)n1c(=O)c2oc3ccccc3c2n(CC(=O)Nc2ccccc2Cl)c1=O,18.8%
15,CSCCC(NC(=O)c1ccco1)C(=O)N1CCCC(C(F)(F)F)C1 (configuration not stated),active: 31.5%
16,Cc1c(Cl)cccc1NC(=O)Cn1c(=O)n(Cc2ccco2)c(=O)c2oc3ccccc3c21,7.24%
17,COC(=O)c1c(Oc2ccc(Br)cc2)nnc(-c2ccccc2)c1-c1ccccc1,-7.15%
18,CCc1nc2nc(C)cc(Nc3ccc(F)c(Cl)c3)n2n1,24.7%
19,COc1ccccc1N1CCN(CCOc2c(OC)cccc2OC)CC1,active: 97.5%
20,O=C1CC(c2ccc(Br)cc2)c2c(ccc3ccccc23)N1 (configuration not stated),1.8%
21,COc1cc(OC)c2c(C)c(CC(=O)N3CCCCC3)c(=O)oc2c1,9.86%
22,Cc1cccc(C(=O)Nc2ccccc2OCc2cc(=O)n3cc(C)ccc3n2)c1,13.9%
23,CC(=O)N1CCCc2cc(S(=O)(=O)N3CCCC(C(=O)Nc4ccc(C)c(F)c4)C3)ccc21 (configuration not stated),4.42%
24,O=C(COc1ccc(Br)cc1)Nc1ccc(C(=O)OC2CCCCC2)cc1,-9.33%
25,CCc1ccc(S(=O)(=O)c2cn(Cc3ccc(OC)cc3)c3cc(OC)c(OC)cc3c2=O)cc1,6.93%

row,Compound,inhibition
1,CCOc1ccc(NC(=O)Cn2c(=O)n(-c3ccccc3)c(=O)c3c4c(sc32)CCCC4)cc1,-15.2%
2,CCc1nnc2c3ccccc3nc(N3CCN(c4cc(Cl)ccc4C)CC3)n12,2.67%
3,COc1ccc(NC(=O)CCc2c(C)nc3cc(-c4cccc(F)c4)nn3c2C)cc1Cl,-2.94%
4,CCOC(=O)c1c(C)[nH]c(C)c1S(=O)(=O)N(C)CC(=O)Nc1ccc(C)c(F)c1,-0.976%
5,CC(=O)Nc1ccc2nc(SCCOc3ccccc3Cl)sc2c1,-1.41%
6,CCCCN(c1ccccc1)c1ncnc2c1cnn2-c1cccc(C)c1,-2.89%
7,COC(=O)c1cc2sccc2n1Cc1nc(-c2ccc(C)cc2)oc1C,-8.72%
8,Cc1cc(C)c(NC(=O)C2CCCN(C(=O)c3cnn(-c4ccccc4)c3-n3cccc3)C2)c(C)c1 (configuration not stated),-7.38%
9,CCc1ccccc1NC(=O)c1ccc2c(c1)c(C)c(C)n2Cc1ccccc1,10.6%
10,CN(C(=O)CSc1nc2ccccc2n1CC(=O)N(C)C1CCCCC1)c1ccc(F)cc1,-14.3%
11,CCOc1ccc(CNC(=O)c2ccc3c(c2)N(Cc2ccccc2)CCS3)cc1,-13.6%
12,COc1ccccc1N1CCN(C(=O)COc2ccccc2C#N)CC1,-11.6%
13,Cn1c(=O)[nH]c(=O)c2c1ncn2CCN1CCOCC1,active: 38.1%
14,CCOc1ccc(S(=O)(=O)N2CCC(n3c(C)nc4cccnc43)CC2)cc1,-3.2%
15,O=C(Cn1ncc2c(Cl)cccc21)NCc1cccc(F)c1,9.5%
16,COC(=O)c1ccc2c(c1)N(Cc1cc(C)ccc1C)C(=O)c1ccccc1S2(=O)=O,9.11%
17,CC(=O)N1CCc2c(sc(NC(=O)CSc3ccc(F)cc3)c2-c2nc3ccccc3s2)C1,15%
18,Cc1ccc(Cn2c(CO)cnc2SCC(=O)Nc2cccc(F)c2)cc1,-11.2%
19,COc1ccc(-c2noc(-c3ccc(NCCc4ccccc4)c([N+](=O)[O-])c3)n2)cc1,24.2%
20,O=C(Cn1cc(S(=O)(=O)Cc2ccccc2Cl)c2ccccc21)Nc1ccc(F)cc1F,-4.22%
21,Cc1oc2c(C)c3oc(=O)c(CCC(=O)N4CCCCC4)c(C)c3cc2c1C,4.92%
22,CC(C)(C)c1ccc(C(=O)Nc2nnc3n2CCS3)cc1,-9.43%
23,Cc1cc2oc(C(=O)Nc3ccc(S(=O)(=O)N(C)c4ccccc4)cc3)cc(=O)c2cc1C,3.14%
24,CCOC(=O)Cn1c(=O)oc2cc(S(=O)(=O)Nc3ccccc3F)ccc21,26.5%
25,COc1cc(-c2nnc(SCCOc3ccccc3)o2)cc(OC)c1OC,21%

row,Compound,inhibition
1,CCOC(=O)c1c(SCC(=O)Nc2cccc(C)c2C)nc(=O)[nH]c1C,22.5%
2,OC(COCc1ccccc1)CN1CCc2ccccc2C1 (configuration not stated),active: 46.9%
3,CCn1c(C)c(C)c2cc(C(=O)NCCc3cc(OC)ccc3OC)ccc21,5.49%
4,Cc1oc2ncn(CC(C)C)c(=O)c2c1C(=O)NCCCN(C)Cc1ccccc1,-13.2%
5,O=C(Nc1cccc(C(F)(F)F)c1)C1CCCN(S(=O)(=O)c2cccc3nonc23)C1 (configuration not stated),-0.439%
6,Cc1ccccc1Cn1cc(S(=O)(=O)c2ccc(F)cc2)c(=O)c2cc3c(cc21)OCO3,-5.55%
7,O=[N+]([O-])c1cc(-c2nc3nc4ccccc4nc3n2CCc2ccccc2)cc([N+](=O)[O-])c1,active: 67.5%
8,Cc1ccc(NC(=O)Cn2c(=O)n(CCCCC(=O)NCCc3ccccc3)c(=O)c3ccccc32)cc1,-0.884%
9,Cc1cc(=O)n(Cc2ccc(Br)cc2F)c2c1c(C)nn2-c1ccccc1,2.54%
10,Cc1cc(Cl)ccc1OCCSc1nnc(-c2cccs2)o1,-22.8%
11,O=C(CCNS(=O)(=O)c1ccc2c(c1)CCCC(=O)N2)NCc1ccc(Cl)cc1,-1.38%
12,COc1ccc(C)cc1NC(=O)CN(C)S(=O)(=O)c1ccc2[nH]c(=O)oc2c1,8.95%
13,CCc1nccn1S(=O)(=O)c1cc(Br)ccc1Br,-27.6%
14,COC(=O)c1sccc1S(=O)(=O)N(CC(=O)Nc1cc(F)ccc1F)c1ccc(C)c(C)c1,-0.96%
15,Cc1ccnn1CC(=O)N/N=C/c1cn[nH]c1-c1ccccc1,active: 43.9%
16,O=C(COc1ccccc1Cl)Nc1ccc2nc(SCC(=O)N3CCOCC3)sc2c1,7.12%
17,Cc1ccc(NC(=O)CSc2nccn2-c2ccccc2)cc1,-5.16%
18,O=S(=O)(c1ccc2nc(Nc3ccc(Br)cc3F)ccc2c1)N1CCCCC1,-5.23%
19,COc1ccccc1C(=O)Nc1ccccc1C(=O)N1C(C)CCCC1C (configuration not stated),active: 48.3%
20,CCSc1nc2sc3c(c2c(=O)n1-c1ccc(C)c(Cl)c1)CCN(C(C)=O)C3,2.42%
21,COc1ccc(CCNC(=O)c2ccc3c(c2)CCN3S(=O)(=O)c2ccc(C)cc2)cc1OC,11.8%
22,O=S(=O)(Nc1cccc(-c2ccc(N3CCOCC3)nn2)c1)c1ccc(F)c(C(F)(F)F)c1,-23.9%
